Source: paper PMC7819943, “Rice protein-binding microarrays: a tool to detect cis-acting elements near promoter regions in rice”
The other results are listed elsewhere or left out.

Target: T1, OsWOX13 (Oryza sativa, UniProt Q5QMM3 1-267)
T1 sequence: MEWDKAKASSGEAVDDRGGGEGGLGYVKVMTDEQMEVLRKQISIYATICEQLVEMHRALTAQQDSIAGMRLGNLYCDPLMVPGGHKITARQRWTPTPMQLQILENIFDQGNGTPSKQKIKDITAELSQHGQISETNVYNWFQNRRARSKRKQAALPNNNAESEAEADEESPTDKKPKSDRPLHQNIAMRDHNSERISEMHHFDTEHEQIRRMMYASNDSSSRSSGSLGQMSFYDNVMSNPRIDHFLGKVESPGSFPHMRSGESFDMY
Assay: protein-binding microarray (RPBM); PBS, 2% BSA, 51.3 ng/ul salmon testes DNA, 50 uM zinc acetate, 200 nM TF, 25 C, 1 h; high values mean tight binding
Settings: protein: recombinant; tags: N-terminal polyhistidine and DsRed monomer fusion (pET32a); label: CyDye5-dUTP incorporated in the synthesized complementary strand; 3' TTTTT single-stranded linker to array surface; dsDNA, one strand shown
Outline: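 A custom Agilent array was converted to double-stranded form by primer extension with Cy5-dUTP and blocked with 2% BSA. Protein at 200 nM in PBS with 2% BSA, salmon testes DNA and 50 µM zinc acetate was applied for 1 h at 25 °C, followed by washing. The proteins were polyhistidine–DsRed N-terminal fusions of transcription factors, expressed in E. coli BL21-CodonPlus and Ni–NTA-purified. The binding signal is per-feature fluorescence intensity (arbitrary units) from an Axon 4000B scanner.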

Sequence | binding signal
TGCTAATGATGGATTAATTAAGCTTAATAAATTCATCTCGCGGAGTCACCTAGTGCAG | 53700 fluorescence intensity (a.u.)
TCTGATATATATATATATATATATATAACATCAGGGAGGACGGAGTCACCTAGTGCAG | 4830 fluorescence intensity (a.u.)
ATTAACTATAGATGATTTGGAGCTAGTAGTTGGCTATACCCGGAGTCACCTAGTGCAG | 17100 fluorescence intensity (a.u.)
AAAATAATTTGAATATATTGCTACCTGAAATTTGGATAATCGGAGTCACCTAGTGCAG | 6150 fluorescence intensity (a.u.)
TCCATAACAAATTGACAAGTGACCTATCTATCCACATGTCCGGAGTCACCTAGTGCAG | 43600 fluorescence intensity (a.u.)
ATATCTTGTCGCTTTCTCAATCAACAATTTGCGTTAACTTCGGAGTCACCTAGTGCAG | 5810 fluorescence intensity (a.u.)
ATAAATTATTAATAGAGTGTATCGCTGGAGCGTAGAAATTCGGAGTCACCTAGTGCAG | 10800 fluorescence intensity (a.u.)
CGATCAATTATTACACCAATTCAATCGAACACAAACATATCGGAGTCACCTAGTGCAG | 6840 fluorescence intensity (a.u.)
CTTTGATCAGCTAATGGATGTGATTGACAAGATCAAGAATCGGAGTCACCTAGTGCAG | 37700 fluorescence intensity (a.u.)
AAGAAAAGAAAAGAGATTAATTGATGGGTTCTACGATGACCGGAGTCACCTAGTGCAG | 6560 fluorescence intensity (a.u.)
ACATGATTTATGATTTAGTGTATGTGCTTAAAGAATCCTTCGGAGTCACCTAGTGCAG | 18700 fluorescence intensity (a.u.)
AATACTGAAATGACTGGAATGAAAGTCTGGTCGGGGATCCCGGAGTCACCTAGTGCAG | 3530 fluorescence intensity (a.u.)
GGTTGATTTAATTCTGTATCTTTGATTTGATCTATAGCGTCGGAGTCACCTAGTGCAG | 51600 fluorescence intensity (a.u.)
TTTTCCCAAATTAGTAGCCTAATTTAATTAATTCGGACGTCGGAGTCACCTAGTGCAG | 19800 fluorescence intensity (a.u.)
CAATTAACTGGCAAGCTACATATGCCCCGCAATTAACCTACGGAGTCACCTAGTGCAG | 15400 fluorescence intensity (a.u.)
CAAATTTGAATAAATGTAGTGAAAATTTTAGGATTGGGAGCGGAGTCACCTAGTGCAG | 4660 fluorescence intensity (a.u.)
GTACTAAATTTTGTTATTCTTCTCCTCCAAGGGCATATCGCGGAGTCACCTAGTGCAG | 5010 fluorescence intensity (a.u.)
AAATACTGAATTGATTTATTTGGATCTATTTGTAAAATAACGGAGTCACCTAGTGCAG | 6140 fluorescence intensity (a.u.)
TCATGGTGTGATTAGGCCCAAAAGATTCGTCTCGCAATTTCGGAGTCACCTAGTGCAG | 3560 fluorescence intensity (a.u.)
TTAAATTTAAAGCAGTCTGACTTTGATCTGAAACGGAGGGCGGAGTCACCTAGTGCAG | 14500 fluorescence intensity (a.u.)
TTATAAATTAAATTTTATGTAATGAAAATAATATCATTGGCGGAGTCACCTAGTGCAG | 23600 fluorescence intensity (a.u.)

Sequence | binding signal
CTGCTAGATTGGTAGTGGCAACCGTGTGCTAGTGCAGCATCGGAGTCACCTAGTGCAG | 9160 fluorescence intensity (a.u.)
CAACAAATTTAATGGTGCAATCGGGTCATGATTTGGATAACGGAGTCACCTAGTGCAG | 12700 fluorescence intensity (a.u.)
TTCCAACAAATAAATTAAGATTTGCATTATTAGTTCCCTCCGGAGTCACCTAGTGCAG | 4120 fluorescence intensity (a.u.)
GTGCAAGGATAATTGGTGATTATATTAGTGTATATTTAAGCGGAGTCACCTAGTGCAG | 18200 fluorescence intensity (a.u.)
AATTGATAGAATTTACTTAGTTTTGAACATTGCGTCATACCGGAGTCACCTAGTGCAG | 22000 fluorescence intensity (a.u.)
AATTTAAAATAGTTAATAATCAATTAATCACATTAATCCACGGAGTCACCTAGTGCAG | 15000 fluorescence intensity (a.u.)
GTCTATATTTATTGACAGATTGATAGTATAAAGCTGTAAACGGAGTCACCTAGTGCAG | 34600 fluorescence intensity (a.u.)
GGGCCGTGATTGATTTGCTGGCGTGTGTGATTTTCAGCTGCGGAGTCACCTAGTGCAG | 62900 fluorescence intensity (a.u.)
TCTCTAATTTATTAGAGCACCACGTGTCGGCTTGAGAGCGCGGAGTCACCTAGTGCAG | 24600 fluorescence intensity (a.u.)
GTAGAATTGATAGTCTTCTACCATAATGCAAATTCTTGTACGGAGTCACCTAGTGCAG | 8170 fluorescence intensity (a.u.)
TATATTAACAAGTAATTTCTGTTTTGCATTCTTTTGTTCACGGAGTCACCTAGTGCAG | 6020 fluorescence intensity (a.u.)
AATAACTAATTACATGGATTGCGACTACTTTGCGAGACGACGGAGTCACCTAGTGCAG | 15200 fluorescence intensity (a.u.)
CTATGATTTGACAATATGGTGCTACAGTAAATATTCGCTACGGAGTCACCTAGTGCAG | 43700 fluorescence intensity (a.u.)
GATGGGAATTTAATTGTAAACAGAAAAGAAAATTGGTGTTCGGAGTCACCTAGTGCAG | 10100 fluorescence intensity (a.u.)
ATAATTTCCAAACTGATGTATCTACTTCTCTTGCTCTACTCGGAGTCACCTAGTGCAG | 4720 fluorescence intensity (a.u.)
GCTAATTCATTCATATAATATAATCATCATATATGGGCCTCGGAGTCACCTAGTGCAG | 6740 fluorescence intensity (a.u.)
TTCGCCTAAAATACCAATCAAAACTCTAGACACAGACACGCGGAGTCACCTAGTGCAG | 10700 fluorescence intensity (a.u.)
CGTTTAATTTGCAGTCATTTATGAGCTTGTTTACTTCCTACGGAGTCACCTAGTGCAG | 23200 fluorescence intensity (a.u.)
TACGCCTGATTGGATCCCCACCCCTATCTCCACTGACTGTCGGAGTCACCTAGTGCAG | 34100 fluorescence intensity (a.u.)
ATCCAATTAATCCACGGATACCATGAAATTAAATGCTTGGCGGAGTCACCTAGTGCAG | 8980 fluorescence intensity (a.u.)
CCATAGATAATTTAAGATAACACATAATCTGCCGGGAATTCGGAGTCACCTAGTGCAG | 12300 fluorescence intensity (a.u.)

Sequence | binding signal
CCGTCAATCTCAATCTCCCACTGCCCAACTATTTAAGCAGCGGAGTCACCTAGTGCAG | 14600 fluorescence intensity (a.u.)
TCAGATTAGCAATGATTAAGGGATCAACAGTTGAGCGAATCGGAGTCACCTAGTGCAG | 42700 fluorescence intensity (a.u.)
ATTATTTGTCTAAATTTAAATTCTATACCGTGACAAATATCGGAGTCACCTAGTGCAG | 7060 fluorescence intensity (a.u.)
GATTAATTAGGCTCAATAAATTTGTCTCGCGAATTAGTTTCGGAGTCACCTAGTGCAG | 21900 fluorescence intensity (a.u.)
CACATATGGTGATTGGAAATTTAATTAACCTCTTCCCCTACGGAGTCACCTAGTGCAG | 46600 fluorescence intensity (a.u.)
CCCAATTAAATTGCACCTTATACGGTGCTACTGCTGTGTCCGGAGTCACCTAGTGCAG | 24100 fluorescence intensity (a.u.)
TATAACCAATTTAGAATTTAATTAACAAGGTAATTGTTGTCGGAGTCACCTAGTGCAG | 13400 fluorescence intensity (a.u.)
ACGTAATTAGTTTTATAAGTAGTCTATATTTAATACTCTACGGAGTCACCTAGTGCAG | 12200 fluorescence intensity (a.u.)
ATCTGGCAATAATTTACAATTAATTGATACCTTATTGCCTCGGAGTCACCTAGTGCAG | 54800 fluorescence intensity (a.u.)
TCAAAATTTCCAATGAAAATTGAAAATTTTCCCTCCGCAACGGAGTCACCTAGTGCAG | 7910 fluorescence intensity (a.u.)
GACACATCACATACTTTAATTTGGCGATAAAACACATGTGCGGAGTCACCTAGTGCAG | 3430 fluorescence intensity (a.u.)
TGCATGACTGTGGAATTACTCCTGATGAGCATACCATTTCCGGAGTCACCTAGTGCAG | 8880 fluorescence intensity (a.u.)
CTGATTACAAGATATAAGTATCATCAACAGAACAATACACCGGAGTCACCTAGTGCAG | 3650 fluorescence intensity (a.u.)
GTAATTTTCTTCTGTCTAAATTAAAATATATACAATCATCCGGAGTCACCTAGTGCAG | 9310 fluorescence intensity (a.u.)
TCCGGGCCCTGTCAATTTAACCGCTGCGATTGTTGAGAAACGGAGTCACCTAGTGCAG | 5540 fluorescence intensity (a.u.)
CTTTCAATCAGGTCTCACTCTCACATTTCAGTTTAGGGGACGGAGTCACCTAGTGCAG | 20000 fluorescence intensity (a.u.)
GTATGAATTGACTATAGGTGAATTGGAGTCATTAATGGGCCGGAGTCACCTAGTGCAG | 12000 fluorescence intensity (a.u.)
GATGCATAATATTTATCAATTAGGATTCAAATTCGGTTGCCGGAGTCACCTAGTGCAG | 4210 fluorescence intensity (a.u.)
CAATCTTTGATTAGTTGGTTGCGTCTCTAGGCTGCAGCAACGGAGTCACCTAGTGCAG | 4290 fluorescence intensity (a.u.)
TTAAATTTATACCCCACTTATATCTCACTTACACATCACTCGGAGTCACCTAGTGCAG | 7930 fluorescence intensity (a.u.)
TATATAAATCAATTTAGCCATGAAGGATATTTCGTTGAAGCGGAGTCACCTAGTGCAG | 10400 fluorescence intensity (a.u.)

Sequence | binding signal
AGGTGACGGAAAATTTATAAAATTTCAGACGCCTAAAATGCGGAGTCACCTAGTGCAG | 5920 fluorescence intensity (a.u.)
ATGTTAATGCAAAATAAATTAAATACATAGCAAGGTACTACGGAGTCACCTAGTGCAG | 11200 fluorescence intensity (a.u.)
CTATTAGATTGCAGGTTTCGTGGCTAGATTAGGCTTTAGCCGGAGTCACCTAGTGCAG | 8360 fluorescence intensity (a.u.)
CTTGACTGACCACTGCAACTTCGTCTCCTCTCCCCTTAAACGGAGTCACCTAGTGCAG | 15400 fluorescence intensity (a.u.)
ATAAGTGACAGCCCTGTTATCTTGAATGTGGACTGTGACACGGAGTCACCTAGTGCAG | 3920 fluorescence intensity (a.u.)
AACATCAAGATTGGAGAACAGGATTAGCTGAAGTTAGACGCGGAGTCACCTAGTGCAG | 12800 fluorescence intensity (a.u.)
TGTTATTGATTTCTATATAATACATTGGAGTTTCAAAACTCGGAGTCACCTAGTGCAG | 22700 fluorescence intensity (a.u.)
GGTTAGGGTTTGGGGTGGGGAGGGGTGGATGCGCGTGGGCCGGAGTCACCTAGTGCAG | 13700 fluorescence intensity (a.u.)
TATAACCTTAAATTTTCTATCATACATCAAACACATGTTTCGGAGTCACCTAGTGCAG | 3380 fluorescence intensity (a.u.)
TCAATTGTTCTTAATTTGACAAGGCTAATGCTTACATTTTCGGAGTCACCTAGTGCAG | 5380 fluorescence intensity (a.u.)
CAACGCGGCTGATTGTGATTATGGTTAGAATTGTGTGTTTCGGAGTCACCTAGTGCAG | 11400 fluorescence intensity (a.u.)
CCTCTCCGAGATTAGTAATTTTCATTGCTATCGAGAGAGCCGGAGTCACCTAGTGCAG | 3860 fluorescence intensity (a.u.)
GTGATTGGCGTAGACGAGAGGGTTGAATGAGTTCTGGCAACGGAGTCACCTAGTGCAG | 33300 fluorescence intensity (a.u.)
ACAAGATAGATTAAACTAGTTTTATATTAATATGCATGCTCGGAGTCACCTAGTGCAG | 28700 fluorescence intensity (a.u.)
ACATAATTAATGCTCCCTTAACATGTTGATCATACAATTACGGAGTCACCTAGTGCAG | 18500 fluorescence intensity (a.u.)
AAGTTAATGAGATGTCTATAGCATTAAATAAGCTGTCATCCGGAGTCACCTAGTGCAG | 5910 fluorescence intensity (a.u.)
ACTAAACAGATTTTCTTTAAAGTTTATGCAGAAAAGTTTCCGGAGTCACCTAGTGCAG | 6910 fluorescence intensity (a.u.)
TAGATTGCTTGCAGATTAAATAATTTTCTTTTATGGTGATCGGAGTCACCTAGTGCAG | 11700 fluorescence intensity (a.u.)
GTAAATCACTTGATCGATCCATCCATCCATACAATGTGCACGGAGTCACCTAGTGCAG | 3360 fluorescence intensity (a.u.)
TAGGAATGTCAATTAAATTCTTCAAGTCATGTTCGTGGTTCGGAGTCACCTAGTGCAG | 15100 fluorescence intensity (a.u.)
ATGACCAATTTTCAGGAAATTTAACGGCGGTTTTATTTCCCGGAGTCACCTAGTGCAG | 4040 fluorescence intensity (a.u.)
